# Reference: the supplement of paper PMC7826260
# This is one part of the list. Viral Rep nickase domains cut single-stranded DNA in vitro (3 µM enzyme, 1 h, 37 °C); shown is the middle of each 90-letter strand. Values are log2 of uncut reads against the no-enzyme pool; strong cutting gives strongly negative numbers. There is no active / inactive call. Because reads are shares of a total, they shift together; where an enzyme cuts many sequences, the uncut ones exceed 0.
# Columns and labels:
# Assay in all cases: uncleaved DNA left, log2 of reads against the no-enzyme library (log2 ratio); higher = less cleavage (more negative = more Rep cleavage of the k-mer); sequences stand for … in CTCGTCCG…ACCGGAGA
# [1] = test system: T1, Rep nickase domain of Muscovy duck circovirus
# T1 sequence (Rep 1-111, printed without the tag): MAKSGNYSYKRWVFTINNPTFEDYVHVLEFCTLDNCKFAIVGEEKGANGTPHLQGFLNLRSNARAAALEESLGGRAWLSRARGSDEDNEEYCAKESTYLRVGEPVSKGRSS
# Experimental: (§1)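 A pool of 90-nt single-stranded DNAs with seven random bases just before the constant AC of the nick site (name = the seven bases) was cut by 3 µM recombinant His6-SUMO-tagged Rep nickase domain (300 nM DNA, 50 mM HEPES pH 8.0, 50 mM NaCl, 1 mM MnCl2, 1 h, 37 °C, three replicates). Uncut DNA was amplified and sequenced.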
# [2] = test system: T2, Rep nickase domain of banana bunchy top virus
# T2 sequence (Rep 1-94, printed without the tag): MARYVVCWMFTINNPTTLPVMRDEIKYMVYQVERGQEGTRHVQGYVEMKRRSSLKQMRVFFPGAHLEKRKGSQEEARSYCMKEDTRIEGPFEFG
# Experimental: as §1
# [3] = test system: T3, Rep nickase domain of cabbage leaf curl virus
# T3 sequence (Rep 1-116, printed without the tag): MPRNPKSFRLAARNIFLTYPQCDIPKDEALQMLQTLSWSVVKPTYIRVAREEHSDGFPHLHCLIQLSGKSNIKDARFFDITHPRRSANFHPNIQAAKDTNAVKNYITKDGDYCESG
# Experimental: as §1
# [4] = test system: T4, Rep nickase domain of chickpea chlorotic dwarf virus
# T4 sequence (Rep 1-124, printed without the tag): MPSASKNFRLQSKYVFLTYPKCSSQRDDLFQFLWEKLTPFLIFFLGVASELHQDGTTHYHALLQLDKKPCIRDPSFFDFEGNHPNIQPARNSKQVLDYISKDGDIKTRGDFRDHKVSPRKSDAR
# Experimental: as §1
# [5] = test system: T5, Rep nickase domain of faba bean necrotic yellows virus
# T5 sequence (Rep 1-98, printed without the tag): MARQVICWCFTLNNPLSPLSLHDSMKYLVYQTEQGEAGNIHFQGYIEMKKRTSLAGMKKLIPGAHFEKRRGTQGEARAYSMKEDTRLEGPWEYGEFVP
# Experimental: as §1
# [6] = test system: T6, Rep nickase domain of maize striate mosaic virus
# T6 sequence (Rep 1-117, printed without the tag): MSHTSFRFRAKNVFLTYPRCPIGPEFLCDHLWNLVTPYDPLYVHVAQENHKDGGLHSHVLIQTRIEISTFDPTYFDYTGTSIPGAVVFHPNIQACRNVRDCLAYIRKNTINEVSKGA
# Experimental: as §1
# [7] = test system: T7, Rep nickase domain of porcine circovirus 2
# T7 sequence (Rep 2-116, printed without the tag): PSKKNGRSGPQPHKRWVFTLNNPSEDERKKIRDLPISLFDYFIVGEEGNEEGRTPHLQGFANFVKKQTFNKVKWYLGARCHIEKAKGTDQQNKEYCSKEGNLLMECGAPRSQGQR
# Experimental: as §1
# [8] = test system: T8, Rep nickase domain of tomato golden mosaic virus
# T8 sequence (Rep 1-124, printed without the tag): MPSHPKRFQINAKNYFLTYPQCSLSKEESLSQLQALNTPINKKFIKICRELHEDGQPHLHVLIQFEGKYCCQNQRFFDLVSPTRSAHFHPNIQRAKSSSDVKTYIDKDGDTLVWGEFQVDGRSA
# Experimental: as §1
# [9] = test system: T9, Rep nickase domain of tomato yellow leaf curl virus
# T9 sequence (Rep 1-136, printed without the tag): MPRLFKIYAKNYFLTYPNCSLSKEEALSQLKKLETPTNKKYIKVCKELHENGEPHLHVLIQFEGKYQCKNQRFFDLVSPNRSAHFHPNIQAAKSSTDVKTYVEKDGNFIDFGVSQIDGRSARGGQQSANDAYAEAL
# Experimental: as §1
# [10] = test system: T10, Rep nickase domain of wheat dwarf virus
# T10 sequence (Rep 1-137, printed without the tag): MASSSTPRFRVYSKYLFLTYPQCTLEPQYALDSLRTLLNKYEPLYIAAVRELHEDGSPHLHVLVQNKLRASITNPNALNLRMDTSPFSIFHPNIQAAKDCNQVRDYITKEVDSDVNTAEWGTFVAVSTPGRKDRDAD
# Experimental: as §1
Sequence,uncleaved DNA left (log2) [1],uncleaved DNA left (log2) [2],uncleaved DNA left (log2) [3],uncleaved DNA left (log2) [4],uncleaved DNA left (log2) [5],uncleaved DNA left (log2) [6],uncleaved DNA left (log2) [7],uncleaved DNA left (log2) [8],uncleaved DNA left (log2) [9],uncleaved DNA left (log2) [10]
CTTGAGT,0.0755,0.00826,-0.559,-0.828,-0.00604,-1.02,-0.349,-0.0847,0.0275,-0.0815
TGCTGCA,-0.034,-0.0332,-0.357,-0.552,0.0618,-0.779,-0.143,-0.0666,-0.0164,-0.0767
GCGAACA,-0.0161,0.128,0.0277,0.0766,-0.0494,0.649,0.00727,-0.0868,-0.00451,0.0517
AGGTCGA,0.00101,0.0449,-0.266,-0.456,0.0757,-0.624,0.000673,0.0431,0.0411,0.0326
TGCTCAC,-0.112,0.0448,0.183,0.342,-0.0948,0.687,0.00199,0.0374,0.0654,0.0653
AGCCCCG,-0.0212,-0.137,-0.496,-0.238,-0.0304,-0.527,-0.033,-0.114,-0.101,-0.108
TGAATGG,0.141,0.192,0.28,0.717,0.13,0.287,0.258,0.123,0.098,0.156
TCCCAGA,-0.126,-0.0819,0.0466,-0.0476,-0.173,-0.582,0.059,-0.126,0.0172,-0.0552
GATACCA,-0.0179,0.0473,0.115,0.528,0.0755,0.771,0.133,0.0223,-0.102,0.131
TCAGTAC,-0.0859,-0.102,-0.0455,-0.581,-0.109,-0.547,-0.0613,-0.111,-0.165,0.00899
CTCTTTG,0.0852,0.0544,-0.684,-0.543,0.154,-0.9,0.029,-0.114,0.127,-0.017
TAAGCTG,0.0483,0.0454,0.355,1.61,-0.0301,1.75,0.237,0.147,-0.102,0.107
AGTACCG,-0.111,0.0099,-0.74,-0.774,-0.0624,-0.966,0.0411,-0.0628,-0.047,-0.104
GTCTCCT,-0.0564,0.018,0.202,0.257,-0.178,1.54,-0.226,-0.00936,0.00843,0.0139
CCGCAAT,0.0236,0.025,0.215,-0.198,0.032,-0.0929,-0.178,-0.0898,-0.238,-0.193
